From PubChem BioAssay (NCATS)
Where “and” joins values, the source holds several entries; their conditions need not be identical. Equal entries are not always repeated. The inconclusive results got no clear call from the source; some entries with a clear call stand among them for comparison. Potencies beside an inconclusive call are fits to weak or partial responses and may not hold up. Calls of active or inactive are those of the source. The call rests on the fitted dose curve; in most records, active means well fitted cell-killing curve with a large enough effect; inconclusive means small, poorly fitted or top-dose-only effect; inactive means no such curve, though single readings can be large or run the other way.

Assay: qHTS of pediatric cancer cell lines to identify multiple opportunities for drug repurposing: Primary screen for LAN-5 cells (AID 1347100);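 on activity change, negative = cytotoxic: plate controls were DMSO neutral control for no effect and bortezomib positive control for full effect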
Conditions: LAN-5 neuroblastoma viability, CellTiter-Glo luminescence, 48 h; activity change, negative = cytotoxic: at 46 µM (top of the series)
In short: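 Viability after 48 h compound treatment at 37C, 500-1,000 cells/well, read as ATP luminescence with CellTiter-Glo. Primary screens used 11-point (MIPE, 0.78 nM-46 µM) or 8-point (NPC, 0.59 nM-46 µM) final concentrations; follow-up screens used 11-point dilutions.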
Potency means the concentration at half of the fitted maximal effect; tags describe the fitted curve by direction and shape.

SMILES | Potency | activity change, negative = cytotoxic
CCCC1OC2C[C@@H]3[C@H]4CCC5=CC(=O)C=C[C@]5(C)[C@H]4C(O)C[C@]3(C)[C@]2(C(=O)CO)O1 (stereo partly specified) | inconclusive: 10.5 µM [cytotoxic, partial curve] | –
CN(C)C1CCN(C(=O)c2ccc(NC(=O)Nc3nc(N4CCOCC4)nc(N4CCOCC4)n3)cc2)CC1 | active: 0.187 µM | –
O=C1Nc2ccc(Cl)cc2C(C#CC2CC2)(C(F)(F)F)O1 (stereo unspecified) | inconclusive: 37.2 µM [cytotoxic, partial curve, poor fit] | –
Cc1nc(Nc2n[nH]c3c2CN(C(=O)N[C@H](CN(C)C)c2ccccc2)C3(C)C)c2sccc2n1 | active: 0.418 µM | –
CC=CC(=O)N(CC)c1ccccc1C | inconclusive: 23.5 µM [cytotoxic, single point] | –
Cc1ccc([C@@H]2O[C@H](CO)[C@@H](O)[C@H](O)[C@@H]2O)cc1Cc1ccc(-c2ccc(F)cc2)s1 | – | inactive: -7.53%
CS(=O)(=O)N1CCN(Cc2cc3nc(-c4cccc5[nH]ncc45)nc(N4CCOCC4)c3s2)CC1 | active: 1.05 µM | –
Oc1ccc(-c2ccc(-c3cc(Nc4cccc(CNC5CC5)c4)n[nH]3)cc2)c(O)c1 | inconclusive: 0.935 µM [cytotoxic, full curve] | –
CCc1nc(N)nc(N)c1-c1ccc(Cl)cc1 | inconclusive: 6.68 µM [cytotoxic, full curve] and inconclusive: 9.35 µM [cytotoxic, partial curve, poor fit] | –
CN(CCOc1ccc(NS(C)(=O)=O)cc1)CCc1ccc(NS(C)(=O)=O)cc1 | inactive | –
CN(C)C(=O)C(CCN1CCC(O)(c2ccc(Cl)cc2)CC1)(c1ccccc1)c1ccccc1 | inconclusive: 23.7 µM [cytotoxic, single point] | –
CO[C@H]1/C=C\O[C@@]2(C)Oc3c(C)c(O)c4c(O)c(c5c(nc6cc(C)ccn65)c4c3C2=O)NC(=O)C(C)=CC=C[C@H](C)[C@H](O)[C@@H](C)[C@@H](O)[C@@H](C)[C@H](OC(C)=O)[C@H]1C | inconclusive: 33.2 µM [cytotoxic, single point] | –
CCNC(=O)Nc1ccc2ncc(Nc3ccc(C)cc3)nc2n1 | active: 0.935 µM | –
C=C1C(=O)OC2C=C(C)CCC=C(C)CCC12 (stereo unspecified) | active: 23.5 µM | –
Nc1ncnc2c1nc(Cl)n2[C@@H]1O[C@H](CO)[C@@H](O)[C@@H]1O | inconclusive: 26.4 µM [cytotoxic, single point] | –
O=C1NC(=O)C(=Cc2ccc3c(c2)OC(F)(F)O3)S1 | inconclusive: 26.4 µM [cytotoxic, single point] | –
